Holding throughout (assay type): cell-based
The subject of assay [1] is HCV genotype 1b replicon cells (Huh-luc). Description: Biological Example 1: EC50 determination in Huh-luc replicon cells. As to conditions: Hepatitis C virus, 72 h, 3 days. The protocol:
Compounds 1 and 2 were serially diluted 1:3 in 100% DMSO (Sigma). These serial dilutions were added to the cells at a 1:200 dilution to achieve a final concentration of 0.5% DMSO in a total volume of 200 μL. […] HCV replication levels in drug-treated samples were expressed as a percentage of those in untreated controls (defined as 100%), and data were fit to the logistic dose response equation y=a/(1+(x/b)c) using XLFit4 software (IDBS, Emeryville, Calif.). EC50 values were calculated from the resulting equations as described previously (Delaney, W. E., et al., Antimicrobial Agents Chemotherapy, 45(6):1705-1713 (2001)).
(In general: A replicon is a self-replicating genome or part of one, used to study replication in cells.)

For assay [2] the test system is unchanged. Description: Biological Example 5: antiviral activity assay in HCV Huh-luc replicon cells. The procedure:
Compounds were serially diluted 1:2 in 100% DMSO. Serial dilutions were added to the cells at a 1:200 dilution to achieve a final concentration of 0.5% DMSO in a total volume of 200 μL.
EC50 values were calculated by nonlinear regression analysis of replicate data sets using XLfit 4 software (IDBS, Emeryville, Calif.).

For assay [3] the test system is unchanged. In words: Biological Example 2: EC50 determination in Huh-luc replicon cells. The procedure: Compounds were serially diluted 1:3 in 100% DMSO (Sigma). These serial dilutions were added to the cells at a 1:200 dilution to achieve a final concentration of 0.5% DMSO in a total volume of 200 μL. […] HCV replication levels in drug-treated samples were expressed as a percentage of those in untreated controls (defined as 100%), and data were fit to the logistic dose response equation y=a/(1+(x/b)c) using XLFit4 software (IDBS, Emeryville, Calif.). EC50 values were calculated from the resulting equations as described previously.

The mark [4] stands for this setting: Hepatitis C virus, 72 h, 3 days, read-out: EC50.

A word on the EC50: it is the concentration that produces a half-maximal response.

For the molecule `Fc1ccccc1-c1nc2ccn(Cc3ccc(-c4ccc(C(F)(F)F)cc4C(F)(F)F)nn3)cc-2n1` [Compound 1, 5-((6-(2,4-bis(trifluoromethyl)phenyl)pyridazin-3-yl)methyl)-2-(2-fluorophenyl)-5H-imidazo[4,5-c]pyridine], the concentration giving a half-maximal response (EC50) came out at 3 ± 2 nM in assay [1]; 0.96 ± 0.39 nM in assay [2] (setting [4]); 0.4 ± 0.14 nM in assay [3] (Hepatitis C virus, 72 h, Huh-luc replicon cells, 3 days).
Turning to `COc1ccc2c(O[C@@H]3C[C@H]4C(=O)N[C@]5(P(=O)(O)Cc6c(F)cccc6F)C[C@H]5CCCCCCC[C@H](NC(=O)OC5CCCC5)C(=O)N4C3)cc(-c3csc(NC(C)C)n3)nc2c1Cl` [Compound 2, (2R,6S,13aR,14aS,16aS)-2-(8-chloro-2-(2-(isopropylamino)thiazol-4-yl)-7-methoxyquinolin-4-yloxy)-6-(cyclopentyloxycarbonylamino)-5,16-dioxooctadecahydrocyclopropa[e]pyrrolo[1,2-a][1,4]diazacyclopentadecin-14a-yl(2,6-difluorobenzyl)phosphinic acid], the results for the EC50 in assay [1] and in assay [2] (setting [4]) were 11 ± 3 nM and 5 nM, respectively.
As to `COC(=O)N[C@H](C(=O)N1CC2(CC2)C[C@H]1c1ncc(-c2ccc3c(c2)C(F)(F)c2cc(-c4ccc5nc([C@@H]6[C@H]7CC[C@H](C7)N6C(=O)[C@@H](NC(=O)OC)C(C)C)[nH]c5c4)ccc2-3)[nH]1)C(C)C` [Compound 6, (1-{3-[6-(9,9-Difluoro-7-{2-[5-(2-methoxycarbonylamino-3-methyl-butyryl)-5-aza-spiro[2.4]hept-6-yl]-3H-imidazol-4-yl}-9H-fluoren-2-yl)-1H-benzoimidazol-2-yl]-2-aza-bicyclo[2.2.1]heptane-2-carbonyl}-2-methyl-propyl)-carbamic acid methyl ester], the 50% effective concentration (EC50) in assay [2] (setting [4]) was 0.0018 ± 0.0007 nM.
Take `CC(C)C(=O)OCC1O[C@@H](n2ccc(N)nc2=O)[C@](C)(F)[C@@H]1OC(=O)C(C)C` (stereo partly drawn) [Compound 7]: the EC50 in assay [2] (setting [4]) amounted to 1240 ± 341 nM.
With `NC(=O)c1ncn([C@@H]2O[C@H](CO)[C@@H](O)[C@H]2O)n1` [Ribavirin, 1-β-D-ribofuranosyl-1H-1,2,4-Triazole-3-carboxamide, reference compound], in assay [3] (up to concentrations which were beginning to show cytotoxicity), the antiviral activity result is “no antiviral activity”.
As to IFN-α [reference compound], the EC50 in assay [2] (IFN-α in Units per mL) is 0.05 U/ml ± 0.04.

(Values after US9452154B2, “Methods for treating HCV” (Gilead Sciences, Inc., priority 2010, dated 2016).)
